# In PubChem BioAssay AID488969 (Vanderbilt High Throughput Screening Facility, 2010):
# Over roughly 110,000 compounds, “z-score” has its median near -0.1; the highest 2% begin near 2. This is one part of the list. Active and inactive are the calls of the source.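 Rule for the calls: active = z-score in the third read window above 3 or below -3; inactive = the rest.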
# Target: Metabotropic glutamate receptor 8 (Rattus norvegicus) (UniProt P70579)
# Experiment: mGluR8 Gi/Go-coupled signaling modulation – cell-based, rat, thallium flux, HTS, primary screen (AID 488969)
# Details: HEK293 rat mGluR8, GIRK (G protein-gated inwardly rectifying potassium channel) thallium flux, FluoZin2; at 10 µM; stronger effect = higher value; submaximal glutamate (EC20) added with thallium
# Chain of UniProt P70579 (P70579 whole entry, looked up): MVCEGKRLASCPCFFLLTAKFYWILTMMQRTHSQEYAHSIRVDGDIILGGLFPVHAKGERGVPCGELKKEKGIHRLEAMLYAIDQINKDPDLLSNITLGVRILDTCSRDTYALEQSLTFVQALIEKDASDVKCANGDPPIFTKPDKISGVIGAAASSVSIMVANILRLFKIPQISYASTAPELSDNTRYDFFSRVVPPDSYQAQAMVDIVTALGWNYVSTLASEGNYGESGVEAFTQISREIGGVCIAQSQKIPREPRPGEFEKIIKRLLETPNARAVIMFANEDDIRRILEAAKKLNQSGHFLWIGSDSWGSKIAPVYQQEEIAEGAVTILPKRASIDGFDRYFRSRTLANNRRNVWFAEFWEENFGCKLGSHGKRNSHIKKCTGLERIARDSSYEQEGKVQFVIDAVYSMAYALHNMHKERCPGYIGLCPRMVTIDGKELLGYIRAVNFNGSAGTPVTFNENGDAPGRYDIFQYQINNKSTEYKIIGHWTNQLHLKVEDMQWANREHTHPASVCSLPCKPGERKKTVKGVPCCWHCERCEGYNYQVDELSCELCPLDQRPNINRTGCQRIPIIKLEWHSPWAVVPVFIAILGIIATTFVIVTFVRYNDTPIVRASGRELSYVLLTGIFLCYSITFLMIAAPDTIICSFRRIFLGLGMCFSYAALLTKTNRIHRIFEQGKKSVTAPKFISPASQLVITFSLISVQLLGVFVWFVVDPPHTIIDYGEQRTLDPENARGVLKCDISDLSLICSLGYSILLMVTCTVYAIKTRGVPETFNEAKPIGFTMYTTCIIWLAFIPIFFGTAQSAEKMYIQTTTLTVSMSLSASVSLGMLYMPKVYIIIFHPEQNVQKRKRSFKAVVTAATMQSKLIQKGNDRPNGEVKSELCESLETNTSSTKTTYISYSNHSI
row,Structure (SMILES),z-score
1,CCOC(=O)c1cnc(SCC(=O)Nc2ccc(N3CCOCC3)c(Cl)c2)nc1N,-0.24
2,O=C(O)C(Cc1ccccc1)N1C(=O)c2ccccc2C1=O (stereo not given),0.813
3,Cc1cc2n(n1)SC(Nc1ccc(F)cc1)N2 (stereo not given),-0.00578
4,CCc1ccc(-c2nn(Cc3ccccc3)cc2/C=C/C(=O)O)cc1,-0.317
5,COc1ccc(COC(=O)NC2CCN(S(=O)(=O)c3ccc(OC)cc3)CC2)cc1,-0.669
6,CN(C)CCCN1c2ccccc2Sc2ccc(Cl)cc21,-0.408
7,CC1(C)CC(=O)C2=C(C1)OC(N)=C(C#N)C2c1cn(-c2ccccc2)nc1-c1ccc(F)cc1 (stereo not given),-0.436
8,O=C(CN1CCN(S(=O)(=O)c2ccc3ccccc3c2)CC1)Nc1ccc(N2CCOCC2)cc1,-0.187
9,CN1C2=C(C#N)C(c3ccccc3)(C(F)(F)F)NC(=O)N2c2ccccc21 (stereo not given),-0.282
10,Cc1ccc(S(=O)(=O)CC(=O)Nc2ccc(S(=O)(=O)Nc3onc(C)c3C)cc2)cc1,2.41
11,O=C(Nc1nnc(-c2ccco2)o1)c1cccc2ccccc12,0.259
12,CC(=O)NS(=O)(=O)c1ccc(NC(=S)NC(=O)C(C)C)cc1,0.0298
13,CN1CCN(C(=O)c2cc(-c3cccc(Cl)c3)on2)CC1,1.16
14,CC1CN(C(=O)CSc2nc(-c3ccccc3)cs2)CC(C)O1 (stereo not given),0.179
15,COc1ccccc1NS(=O)(=O)c1cccc(NC(=O)Nc2cccc(Cl)c2)c1,0.021
16,O=C1CCC2CCCCC2(O)O1 (stereo not given),-0.0285
17,CCC(O)(CCN1CCCCC1)c1ccccc1 (stereo not given),-0.185
18,COc1ccc(-n2c(=O)[nH]cc(C(=O)Nc3ccccc3)c2=O)cc1,0.241
19,COc1ccc(S(=O)(=O)Nc2cc(C(=O)NC(C)C)ccc2N2CCOCC2)cc1,-0.144
20,COc1cccc2c1OC[C@@H](CO)[C@H]2N(C)C(=O)Nc1ccc(Cl)cc1Cl,0.0803
21,C=CCNC(=O)COC(=O)c1oc2ccccc2c1CSC1CCCCC1,-0.253
22,COc1ccc(NC(=O)c2cc(=O)c3ccccc3o2)cn1,-0.674

row,Structure (SMILES),z-score
1,COc1ccc(C(=O)N(Cc2ccco2)Cc2cccs2)c(O)c1,-0.315
2,Cc1cc(N(C)C)nc(SC(C)C)n1,-0.243
3,Cc1cccc(C)c1OCC(=O)Nc1cccc(NC(=O)c2ccco2)c1,-1.57
4,COc1cc(-n2cnnn2)ccc1S(=O)(=O)N1CCOCC1,1.29
5,CCOc1ccc(S(=O)(=O)N2CCN(C(=O)c3sccc3C)CC2)cc1,-0.0504
6,COc1ccc(S(=O)(=O)N2CCN(C(=O)c3cccc(Cl)c3)CC2)cc1,-1.33
7,Cc1[nH]nc2c1C(=O)CCC2,-0.57
8,COc1nc(N(C)C)nc(-n2nnc(C(C)=O)c2C)n1,-0.115
9,O=C(NC(c1ccccc1)c1cc(Cl)c2cccnc2c1O)c1cccnc1 (stereo not given),-0.0321
10,Clc1ccc(Cl)c2sc(N3CCCC3)nc12,0.162
11,CC(=O)N1CCN(c2nc3cc4c(cc3nc2NS(=O)(=O)c2ccccc2)OCCO4)CC1,0.271
12,Cc1[nH]c2ccccc2c1C(=O)CN1CCN(C/C=C/c2ccccc2)CC1,0.152
13,CCCn1c(=O)c(C(=O)NNS(=O)(=O)c2ccc(C)cc2)c(O)c2ccccc21,0.758
14,COc1ccc(/C=N/NC(=O)CCn2cnc(-c3ccccc3)c2-c2ccccc2)cc1,0.209
15,CC1=C(C(=O)Nc2ccccc2)C(c2ccco2)NC(=O)N1 (stereo not given),0.367
16,Cn1c(NCCc2ccccc2)cc(=O)n(C)c1=O,-0.0577
17,CSc1ccc(/C=C(/NC(=O)c2ccc(C)cc2)C(=O)Nc2cccc(F)c2)cc1,0.0893
18,Cc1ccc(C(C)(C)C)c(OCCCCN2CCCC2)c1,0.658
19,Cc1nnc2ccc(N3CCOCC3)nn12,0.488
20,Cn1c(=O)c2c(ncn2CC(=O)Nc2ccccc2N2CCOCC2)n(C)c1=O,-0.33
21,CCCCN(C)CCn1c(=S)[nH]c2ncccc2c1=O,-0.411
22,CC(=O)c1ccc(N(C(=O)Cc2c[nH]c3ccccc23)C(C(=O)NC2CCCCC2)c2cccs2)cc1 (stereo not given),-0.116

row,Structure (SMILES),z-score
1,COC(=O)c1sccc1NC(=O)Nc1cccc(Cl)c1Cl,-0.201
2,CCOc1ccc(S(=O)(=O)Nc2cc(C)ccn2)c2ccccc12,-0.18
3,Cc1ccc(S(=O)(=O)NCC2CCC(C(=O)NCCCN3CCOCC3)CC2)cc1 (stereo not given),-0.27
4,O=C(Nc1nc(-c2cccs2)cs1)c1cccc(S(=O)(=O)N2CCCCC2)c1,-0.435
5,O=C(Nc1ccccc1)/C(=C/c1ccccc1)c1ccccc1,-0.379
6,CCc1nnc(NC(=O)CCC(=O)NC2CCCc3ccccc32)s1 (stereo not given),0.00448
7,CC(C)C(NC(=O)C1CCC(C(C)(C)C)CC1)C(=O)NCc1cccnc1 (stereo not given),-0.0771
8,O=C(c1ccc(COc2ccc(Cl)cc2)o1)N1N=C(C(F)F)CC1(O)C(F)F (stereo not given),-0.252
9,CC1(C(=O)NCc2cccnc2)CCC(=O)N1CCc1ccccc1 (stereo not given),-0.0105
10,O=C(NC1(C(F)(F)F)NC(=O)N(Cc2cccnc2)C1=O)c1ccccc1Cl (stereo not given),-0.175
11,CC1=NN(C(=O)COc2ccc(C)c(C)c2)C(O)(c2ccccc2)C1 (stereo not given),0.47
12,COc1ccc(C2CC(c3cccs3)=NN2c2nc(-c3ccccc3)cs2)cc1OC (stereo not given),-0.0707
13,C=COCCNC(=O)Nc1ccc(Cl)c(Cl)c1,active: 3.37
14,CCCCn1c(SCC(=O)Nc2nnc(C(C)C)s2)nc2c1c(=O)n(C)c(=O)n2C,0.12
15,COCc1cc(=O)[nH]c(Sc2c(-c3ccccc3)c3ccc(Cl)cc3[nH]c2=O)n1,-0.351
16,CSCCC(NC(=O)c1cccc([N+](=O)[O-])c1)c1nc2ccccc2[nH]1 (stereo not given),-0.0327
17,CC(C)[C@H](NC(=O)Nc1cccc(Br)c1)C(=O)O,0.274
18,N#Cc1ccc(N2Cc3ccccc3C2=NC(=O)c2cccs2)cc1,-0.715
19,COc1cc(-c2nc(-c3cccc(C)c3)no2)cc(OC)c1OC,0.448
20,CCOC(=O)c1sc(NC(=O)CSc2nnnn2-c2ccccc2)c(C(=O)OCC)c1C,-0.0499
21,CCOC(=O)NC(Nc1sc2c(c1C(N)=O)CCCC2)(C(=O)OCC)C(F)(F)F (stereo not given),-0.0836
22,O=C(Cc1coc2cc3c(cc12)CCC3)NC1CCCCCCC1,-0.0467

row,Structure (SMILES),z-score
1,O=C(Cn1ccc2ccccc2c1=O)NCCC(=O)N1CCN(C(=O)c2ccco2)CC1,0.0722
2,Cc1cccc(NC(=O)c2cc(=O)c3ccccc3o2)n1,0.0433
3,CN1CCN(S(=O)(=O)c2ccc(NC(=O)C3CCCCC3)cc2)CC1,-0.0959
4,Cc1ccc(SC(C)C(=O)Nc2ccccc2C(=O)N2CCOCC2)cc1 (stereo not given),-0.0257
5,Brc1ccc(CN2C3=NCCCN3c3ccccc32)cc1,0.755
6,C=CCNC(=O)c1ccccc1NC(=O)Nc1ccccc1,-0.287
7,CCCc1[nH]nc2c1C(c1ccc(OC(=O)N3CCOCC3)cc1)C(C#N)=C(N)O2 (stereo not given),-1.04
8,O=C(Nc1cc(Sc2nc3ccccc3s2)cc([N+](=O)[O-])c1)c1cccc(F)c1F,-0.201
9,O=C(NCc1ccccn1)c1cc(-n2cnnc2)ccc1Cl,0.148
10,COc1ccc(N2CCN(c3nc(Cl)nc(N4CCOCC4)n3)CC2)cc1,0.606
11,Cc1cc(-c2ccc(N3C(=O)CCC3=O)c(C)c2)ccc1N1C(=O)CCC1=O,0.65
12,CCOC(=O)C1CCN(C(=O)c2c(-c3c(Cl)cccc3Cl)noc2C)CC1,0.331
13,CCCc1cc(Nc2cccc(OC)c2)n2ncnc2n1,-0.466
14,COc1cccc(CN(C)CC(=O)NC(=O)NCc2ccco2)c1,-0.0946
15,CCOC(=O)Nc1ccc2c(CN3CCN(S(=O)(=O)c4ccccc4)CC3)cc(=O)oc2c1,-0.402
16,CCOC(=O)N1CCN(CCC(=O)Nc2ccc(C)c(Br)c2)CC1,-0.922
17,COc1ccc(OC)c(-c2cc(C(=O)N3CCCc4ccccc43)no2)c1,1.1
18,O=C(CNS(=O)(=O)c1ccc(Br)s1)N1CCN(c2ncccn2)CC1,0.0378
19,CC(NC(=O)CSc1nc2ccccc2n1CCC#N)c1ccc(F)cc1 (stereo not given),-0.463
20,C/C(=N/OC(=O)c1cccc(Cl)c1)c1nccs1,-0.000682
21,COc1cc(C(=O)O/N=C2\C=CC(=O)C=C2C)cc(OC)c1OC,-0.421
22,CNC(=O)NC(=O)C(C)OC(=O)c1c2c(nc3ccccc13)/C(=C/c1cccs1)CC2 (stereo not given),-0.36

row,Structure (SMILES),z-score
1,CCOCCCNC(=O)/C(C#N)=C/c1ccc(-c2ccc(S(=O)(=O)N3CCOCC3)cc2)o1,2.32
2,Cc1ccc(CNC(=O)C2CCN(S(=O)(=O)c3ccc4c(c3)OCCCO4)CC2)cc1,0.0364
3,Cc1cc(C)nc(N2C(=O)CC(C(C)c3ccccc3)C2=O)n1 (stereo not given),0.634
4,CCCCNC(=O)/C=C/c1cccs1,-0.364
5,Brc1ccc(-c2ncc(-c3ccccc3)cn2)cc1,-0.0849
6,COc1ccccc1NC(=S)NNC(=O)c1nn(C)c(C)c1Br,-0.19
7,NC(=O)Cc1nc(-c2ccc(Br)cc2)cs1,-0.0312
8,CN(CC(=O)OCC(=O)NCc1ccccc1)S(=O)(=O)c1ccc(Cl)cc1,-0.849
9,O=C(NCCN1CCOCC1)c1cc(-c2ccc(Br)cc2)on1,1.14
10,CN1CCCC(OC(=O)COc2ccc(Br)cc2)C1 (stereo not given),-0.177
11,CN(C)c1nc(C#N)nc(N2CCOCC2)n1,0.0483
12,Cc1nn(C)c(C)c1CN(C)C(=O)C1(C)CC1(Br)Br (stereo not given),-0.26
13,S=C(Nc1ccccc1Cl)N(CCN1CCCCC1)Cc1ccco1,-0.343
14,Cc1ccc(CNc2oc(-c3ccco3)nc2S(=O)(=O)c2ccccc2)cc1,0.738
15,CCCCn1c(SCc2nc(N)nc(Nc3ccccc3C)n2)nc2ccccc2c1=O,active: 3.44
16,CCn1c(SCC(=O)Nc2ccccc2OC)nc2ccccc2c1=O,-0.373
17,Cc1ccc(-c2nc(N)sc2CC(=O)OCC(=O)NC2CCCC(C)C2C)cc1 (stereo not given),-0.304
18,O=C(CCN1CCC(c2ccccc2)C1)c1ccc2c(c1)OCCO2 (stereo not given),0.642
19,CC(C)(C)C(=O)OCc1cn(-c2ccccc2)nn1,-0.38
20,COc1ccc(Cl)cc1NC(=O)[C@@H]1CCCN1C(=O)c1cccs1,-0.283
21,Cc1ccc(-n2nnnc2SCC(=O)NNC(=O)c2ccco2)c(C)c1,-0.103
22,Cc1cc(C)c(NC(=O)c2ccc(S(=O)(=O)N(C)C)cc2)c(C)n1,-1.73
